Measured values taken from the supplement of paper PMC8728848.
The other results are listed elsewhere or left out.

Assays:
Assay in all cases: glycan array binding signal (z-score within array); higher = stronger binding
Conditions in all cases: glycan notation: IUPAC condensed, linker removed
[1] = target: Neu5Ac(a2-3)Gal(b1-4)GlcNAc(b1-3)Gal(b1-4)GlcNAc(b1-2)Man(a1-3)[Neu5Ac(a2-3)Gal(b1-4)GlcNAc(b1-3)Gal(b1-4)GlcNAc(b1-2)Man(a1-6)]Man(b1-4)GlcNAc(b1-4)GlcNAc
How it was run: (§1)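 Glycan array data were curated from 3228 arrays in the Consortium for Functional Glycomics database and kept only where the protein sequence was available. Glycan names were converted to IUPAC-condensed notation, and columns mapping to the same glycan were averaged. The binding signal is a within-array Z-score, averaged across arrays of the same protein sequence at different concentrations or buffers and across linkers. Negative Z-scores can be read as non-binding.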

[2] = target: Neu5Ac(a2-3)Gal(b1-4)GlcNAc(b1-3)Gal(b1-4)GlcNAc(b1-3)Gal(b1-4)GlcNAc
How it was run: as §1

[3] = target: Neu5Ac(a2-3)Gal(b1-4)GlcNAc(b1-3)Gal(b1-4)GlcNAc(b1-3)Gal(b1-4)GlcNAc(b1-2)Man(a1-3)[Neu5Ac(a2-3)Gal(b1-4)GlcNAc(b1-3)Gal(b1-4)GlcNAc(b1-3)Gal(b1-4)GlcNAc(b1-2)Man(a1-6)]GalNAc
How it was run: as §1

[4] = target: Neu5Ac(a2-3)Gal(b1-4)GlcNAc(b1-3)Gal(b1-4)GlcNAc(b1-3)GalNAc
How it was run: as §1

[5] = target: Neu5Ac(a2-3)Gal(b1-4)GlcNAc(b1-3)Gal(b1-4)GlcNAc(b1-3)[Neu5Ac(a2-3)Gal(b1-4)GlcNAc(b1-3)Gal(b1-4)GlcNAc(b1-6)]GalNAc
How it was run: as §1

[6] = target: Neu5Ac(a2-3)Gal(b1-4)GlcNAc(b1-3)Gal(b1-4)GlcNAc(b1-6)[Gal(b1-3)]GalNAc
How it was run: as §1

[7] = target: Neu5Ac(a2-3)Gal(b1-4)GlcNAc(b1-3)Gal(b1-4)[Fuc(a1-3)]GlcNAc
How it was run: as §1

[8] = target: Neu5Ac(a2-3)Gal(b1-4)GlcNAc(b1-3)GalNAc
How it was run: as §1

[9] = target: Neu5Ac(a2-3)Gal(b1-4)GlcNAc(b1-3)[Neu5Ac(a2-3)Gal(b1-4)GlcNAc(b1-6)]GalNAc
How it was run: as §1

[10] = target: Neu5Ac(a2-3)Gal(b1-4)GlcNAc(b1-6)GalNAc
How it was run: as §1

[11] = target: Neu5Ac(a2-3)Gal(b1-4)GlcNAc(b1-6)[Gal(b1-3)]GalNAc
How it was run: as §1

[12] = target: Neu5Ac(a2-3)Gal(b1-4)GlcNAc(b1-6)[Neu5Ac(a2-3)Gal(b1-3)]GalNAc
How it was run: as §1

[13] = target: Neu5Ac(a2-3)Gal(b1-4)GlcNAc6S
How it was run: as §1

[14] = target: Neu5Ac(a2-3)Gal(b1-4)[Fuc(a1-3)]GlcNAc
How it was run: as §1

[15] = target: Neu5Ac(a2-3)Gal(b1-4)[Fuc(a1-3)]GlcNAc(b1-2)Man
How it was run: as §1

[16] = target: Neu5Ac(a2-3)Gal(b1-4)[Fuc(a1-3)]GlcNAc(b1-3)Gal
How it was run: as §1

[17] = target: Neu5Ac(a2-3)Gal(b1-4)[Fuc(a1-3)]GlcNAc(b1-3)Gal(b1-4)GlcNAc
How it was run: as §1

[18] = target: Neu5Ac(a2-3)Gal(b1-4)[Fuc(a1-3)]GlcNAc(b1-3)Gal(b1-4)[Fuc(a1-3)]GlcNAc(b1-3)Gal(b1-4)[Fuc(a1-3)]GlcNAc
How it was run: as §1

[19] = target: Neu5Ac(a2-3)Gal(b1-4)[Fuc(a1-3)]GlcNAc(b1-3)GalNAc
How it was run: as §1

[20] = target: Neu5Ac(a2-3)Gal(b1-4)[Fuc(a1-3)]GlcNAc(b1-6)[Gal(b1-3)]GalNAc
How it was run: as §1

[21] = target: Neu5Ac(a2-3)Gal(b1-4)[Fuc(a1-3)]GlcNAc(b1-6)[Neu5Ac(a2-3)Gal(b1-3)]GalNAc
How it was run: as §1

[22] = target: Neu5Ac(a2-3)Gal(b1-4)[Fuc(a1-3)]GlcNAc6S
How it was run: as §1

[23] = target: Neu5Ac(a2-3)Gal6S(b1-4)GlcNAc
How it was run: as §1

[24] = target: Neu5Ac(a2-3)Gal6S(b1-4)[Fuc(a1-3)]GlcNAc
How it was run: as §1

Neu5Ac(a2-3)GalNAc = target: Neu5Ac(a2-3)GalNAc
How it was run: as §1

[25] = target: Neu5Ac(a2-3)GalNAc(b1-4)GlcNAc
How it was run: as §1

[26] = target: Neu5Ac(a2-3)[GalNAc(b1-4)]Gal(b1-4)Glc
How it was run: as §1

[27] = target: Neu5Ac(a2-3)[GalNAc(b1-4)]Gal(b1-4)GlcNAc
How it was run: as §1

[28] = target: Neu5Ac(a2-3)[GalNAc(b1-4)]Gal(b1-4)GlcNAc(b1-3)GalNAc
How it was run: as §1

[29] = target: Neu5Ac(a2-3)[Neu5Ac(a2-6)]GalNAc
How it was run: as §1

Neu5Ac(a2-6)Gal = target: Neu5Ac(a2-6)Gal
How it was run: as §1

[30] = target: Neu5Ac(a2-6)Gal(b1-3)GlcNAc(b1-3)[Gal(b1-4)GlcNAc(b1-6)]Gal(b1-4)Glc
How it was run: as §1

Neu5Ac(a2-6)Gal(b1-4)Glc = target: Neu5Ac(a2-6)Gal(b1-4)Glc
How it was run: as §1

[31] = target: Neu5Ac(a2-6)Gal(b1-4)GlcNAc
How it was run: as §1

[32] = target: Neu5Ac(a2-6)Gal(b1-4)GlcNAc(b1-2)Man
How it was run: as §1

[33] = target: Neu5Ac(a2-6)Gal(b1-4)GlcNAc(b1-2)Man(a1-3)Man(b1-4)GlcNAc(b1-4)GlcNAc
How it was run: as §1

[34] = target: Neu5Ac(a2-6)Gal(b1-4)GlcNAc(b1-2)Man(a1-3)[Gal(b1-4)GlcNAc(b1-2)Man(a1-6)]Man(b1-4)GlcNAc(b1-4)GlcNAc
How it was run: as §1

[35] = target: Neu5Ac(a2-6)Gal(b1-4)GlcNAc(b1-2)Man(a1-3)[GlcNAc(b1-2)Man(a1-6)]Man(b1-4)GlcNAc(b1-4)GlcNAc
How it was run: as §1

B1: DC-ASGPR Long (Homo sapiens) (protein)
chain: MTRTYENFQYLENKVKVQGFKNGPLPLQSLLQRLRSGPCHLLLSLGLGLLLLVIICVVGFQNSKFQRDLVTLRTDFSNFTSNTVAEIQALTSQGSSLEETIASLKAEVEGFKQERQAGVSELQEHTTQKAHLGHCPHCPSVCVPVHSEMLLRVQQLVQDLKKLTCQVATLNNNASTEGTCCPVNWVEHQDSCYWFSHSGMSWAEAEKYCQLKNAHLVVINSREEQNFVQKYLGSAYTWMGLSDPEGAWKWVDGTDYATGFQNWKPGQPDDWQGHGLGGGEDCAHFHPDGGWNDDVCQRPYHWVCEAGLGQTSQESH
With B1 the “glycan array binding signal (z-score)” value [1] was -0.411, the “glycan array binding signal (z-score)” value [2] was -0.309 and the “glycan array binding signal (z-score)” value [3] was -0.104. For the same binder, the “glycan array binding signal (z-score)” value [4] was -0.242, the “glycan array binding signal (z-score)” value [5] was -0.229 and the “glycan array binding signal (z-score)” value [6] was -0.484. The “glycan array binding signal (z-score)” value [7] was -0.506, the “glycan array binding signal (z-score)” value [8] was 0.084 and the “glycan array binding signal (z-score)” value [9] was -0.552. The “glycan array binding signal (z-score)” value [10] was 2.99, the “glycan array binding signal (z-score)” value [11] was -0.26 and the “glycan array binding signal (z-score)” value [12] was -0.38. For the same binder, the “glycan array binding signal (z-score)” value [13] was -0.333, the “glycan array binding signal (z-score)” value [14] was -0.157 and the “glycan array binding signal (z-score)” value [15] was -0.179. The “glycan array binding signal (z-score)” value [16] was -0.126, the “glycan array binding signal (z-score)” value [17] was -0.277 and the “glycan array binding signal (z-score)” value [18] was -0.298. For the same binder, the “glycan array binding signal (z-score)” value [19] was 0.105, the “glycan array binding signal (z-score)” value [20] was -0.34 and the “glycan array binding signal (z-score)” value [21] was -0.501. The “glycan array binding signal (z-score)” value [22] was -0.312, the “glycan array binding signal (z-score)” value [23] was -0.428 and the “glycan array binding signal (z-score)” value [24] was 1.07. The “glycan array binding signal (z-score)” value (Neu5Ac(a2-3)GalNAc) was -0.291, the “glycan array binding signal (z-score)” value [25] was -0.133 and the “glycan array binding signal (z-score)” value [26] was 1.03. For the same binder, the “glycan array binding signal (z-score)” value [27] was 0.513, the “glycan array binding signal (z-score)” value [28] was -0.713 and the “glycan array binding signal (z-score)” value [29] was -0.293. The “glycan array binding signal (z-score)” value (Neu5Ac(a2-6)Gal) was -0.227, the “glycan array binding signal (z-score)” value [30] was -0.45 and the “glycan array binding signal (z-score)” value (Neu5Ac(a2-6)Gal(b1-4)Glc) was -0.417. The “glycan array binding signal (z-score)” value [31] was -0.381, the “glycan array binding signal (z-score)” value [32] was 0.058 and the “glycan array binding signal (z-score)” value [33] was -0.306. The “glycan array binding signal (z-score)” value [34] was -0.424 and the “glycan array binding signal (z-score)” value [35] was -0.206.
